Measured values published in article PMC6250051 (ACS chemical biology, 2018).

Target: StrepII-SUMO-Beclin 1 (F359D/F360D/W361D) (human, UniProt Q14457, F359D | F360D | W361D)
Assay: AlphaScreen or HTRF

binding result: binds
B1: Bcl-2–6xHis ([…]) (domain or fragment)
chain: not shown
